According to a collection of fitness landscapes (doi:10.1016/j.celrep.2020.107928):
Over roughly 81,000 sequences, “one-hybrid fitness for binding parS DNA” has its median near -0.17; the highest 2% begin near 0.51. Some of the results follow.

B1: Caulobacter ParB omega fusion; a variant is named by its letters at X, in order, B8GW30 (parent)
chain: MESVVVGEPGMSEGRRGLGRGLSALLGEVDAAPAQAPGEQLGGSREAPIEILQRNPDQPRRTFREEDLEDLSNSIREKGVLQPILVRPSPDTAGEYQIVAGERAWRAAQRAGLKTVPIMVRELDDLAVLEIGIIENVQRADLNVLEEALSYKVLMEKFERTQENIAQTIGKSXSHVANXMRLLXLPDEVQSYLVSGELTAXHARAIAAAADPVALAKQIIEGGLSVRETEALARKAPNLSAGKSKGGRPPRVKDTDTQALESDLSSVLGLDVSIDHRGSTGTLTITYATLEQLDDLCNRLTRGI

Variants of: B1
Test: one-hybrid fitness for binding parS DNA (scaled: cognate 1, non-cognate 0); higher = stronger binding
Conditions: with parS DNA site
Procedure, shortened: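 In E. coli USO, a HIS3 reporter with its site placed 19 bp from the promoter was used to select Caulobacter ParB variants randomised at four specificity codons. Growth lasted 48 hours at 37°C on histidine-free M9 containing 0.1 mM IPTG and 5 mM 3-AT. Fitness was taken as the log change in variant-to-wild-type read ratio from Illumina sequencing of pre- and post-selection plasmids, rescaled between the non-cognate and cognate sites.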

| Variant | one-hybrid fitness for binding parS DNA |
| --- | --- |
| IVHT | ≤ 0.2 |
| RQNA | 0.613 |
| SICC | ≤ 0.2 |
| MTFN | ≤ 0.2 |
| VREV | ≤ 0.2 |
| FNLA | ≤ 0.2 |
| SWYS | ≤ 0.2 |
| LLMS | ≤ 0.2 |
| FAYG | ≤ 0.2 |
| RLQQ | ≤ 0.2 |
| IYNG | ≤ 0.2 |
| VRAT | ≤ 0.2 |
| WLSG | ≤ 0.2 |
| KMEF | ≤ 0.2 |
| ANVC | ≤ 0.2 |
| YVCR | ≤ 0.2 |
| RMLK | ≤ 0.2 |
| TTMK | ≤ 0.2 |
| LSAL | ≤ 0.2 |
| YCQN | ≤ 0.2 |
| IFME | ≤ 0.2 |
| IPGK | ≤ 0.2 |
| QAAL | ≤ 0.2 |
| HAQG | ≤ 0.2 |

| Variant | one-hybrid fitness for binding parS DNA |
| --- | --- |
| MNIL | ≤ 0.2 |
| PTKH | ≤ 0.2 |
| MFSG | ≤ 0.2 |
| KFVN | ≤ 0.2 |
| AKHP | ≤ 0.2 |
| LFAM | ≤ 0.2 |
| NRLW | ≤ 0.2 |
| QTTC | ≤ 0.2 |
| YFSK | ≤ 0.2 |
| PIYD | ≤ 0.2 |
| YDSR | ≤ 0.2 |
| TKHQ | ≤ 0.2 |
| IPCL | ≤ 0.2 |
| LHKM | ≤ 0.2 |
| WLTR | ≤ 0.2 |
| CLCY | ≤ 0.2 |
| QYKF | ≤ 0.2 |
| EKGG | ≤ 0.2 |
| VHYM | ≤ 0.2 |
| KRAL | ≤ 0.2 |
| IIDT | ≤ 0.2 |
| LQPW | ≤ 0.2 |
| AVVA | ≤ 0.2 |
| KCAD | ≤ 0.2 |

| Variant | one-hybrid fitness for binding parS DNA |
| --- | --- |
| QMYF | ≤ 0.2 |
| PLVN | ≤ 0.2 |
| NVFD | ≤ 0.2 |
| LELK | ≤ 0.2 |
| PTGF | ≤ 0.2 |
| QAEL | ≤ 0.2 |
| AQRN | ≤ 0.2 |
| MMYS | ≤ 0.2 |
| YAHE | ≤ 0.2 |
| GQSI | ≤ 0.2 |
| NCLR | ≤ 0.2 |
| HTIR | ≤ 0.2 |
| VGGV | ≤ 0.2 |
| GTPL | ≤ 0.2 |
| GFPY | ≤ 0.2 |
| SILG | ≤ 0.2 |
| KLDR | ≤ 0.2 |
| VNTY | ≤ 0.2 |
| TRCP | ≤ 0.2 |
| TYSM | ≤ 0.2 |
| REFS | ≤ 0.2 |
| KWVI | ≤ 0.2 |
| MVSM | ≤ 0.2 |
| AKTV | ≤ 0.2 |

| Variant | one-hybrid fitness for binding parS DNA |
| --- | --- |
| EAKY | ≤ 0.2 |
| TVRE | ≤ 0.2 |
| RHYE | ≤ 0.2 |
| CSNT | ≤ 0.2 |
| HCFS | ≤ 0.2 |
| AEIN | ≤ 0.2 |
| IGNT | ≤ 0.2 |
| AMRI | ≤ 0.2 |
| NEAG | ≤ 0.2 |
| AVYA | ≤ 0.2 |
| RLVY | 0.465 |
| EQLA | ≤ 0.2 |
| FQIR | ≤ 0.2 |
| ERLA | ≤ 0.2 |
| HDKS | ≤ 0.2 |
| FMWG | ≤ 0.2 |
| HYQF | ≤ 0.2 |
| LTSM | ≤ 0.2 |
| HFKG | ≤ 0.2 |
| CHTV | ≤ 0.2 |
| TSSL | ≤ 0.2 |
| PFKT | ≤ 0.2 |
| SARF | ≤ 0.2 |
| ITQW | ≤ 0.2 |

| Variant | one-hybrid fitness for binding parS DNA |
| --- | --- |
| SLNA | ≤ 0.2 |
| PQIG | ≤ 0.2 |
| HLQC | ≤ 0.2 |
| FTAG | ≤ 0.2 |
| SYSH | ≤ 0.2 |
| MMWG | ≤ 0.2 |
| YMMN | ≤ 0.2 |
| FRCG | ≤ 0.2 |
| CKMR | ≤ 0.2 |
| ESMS | ≤ 0.2 |
| TEDS | ≤ 0.2 |
| QTNA | ≤ 0.2 |
| VESH | ≤ 0.2 |
| DTHS | ≤ 0.2 |
| HSCR | ≤ 0.2 |
| YTFG | ≤ 0.2 |
| KLRT | ≤ 0.2 |
| QDTP | ≤ 0.2 |
| DRYA | ≤ 0.2 |
| QYNT | ≤ 0.2 |
| WRWP | ≤ 0.2 |
| RHPN | ≤ 0.2 |
| NYHG | ≤ 0.2 |
| LLYC | ≤ 0.2 |

| Variant | one-hybrid fitness for binding parS DNA |
| --- | --- |
| FEKR | ≤ 0.2 |
| DTAL | ≤ 0.2 |
| GTAW | ≤ 0.2 |
| QANW | ≤ 0.2 |
| QWKS | ≤ 0.2 |
| MAPV | ≤ 0.2 |
| RRCL | ≤ 0.2 |
| ITFW | ≤ 0.2 |
| EYAS | ≤ 0.2 |
| NHFS | ≤ 0.2 |
| IGEL | ≤ 0.2 |
| LERY | ≤ 0.2 |
| HLTS | ≤ 0.2 |
| TPQC | ≤ 0.2 |
| IHPL | ≤ 0.2 |
| TPHF | ≤ 0.2 |
| KQTL | ≤ 0.2 |
| ATRE | ≤ 0.2 |
| QVHC | ≤ 0.2 |
| GETT | ≤ 0.2 |
| TPNS | ≤ 0.2 |
| RNGV | ≤ 0.2 |
| GKWS | ≤ 0.2 |
| DNNC | ≤ 0.2 |

| Variant | one-hybrid fitness for binding parS DNA |
| --- | --- |
| YSIF | ≤ 0.2 |
| LYSI | ≤ 0.2 |
| QNLI | ≤ 0.2 |
| RSAV | ≤ 0.2 |
| IPAP | ≤ 0.2 |
| RLNF | 0.209 |
| RERE | ≤ 0.2 |
| ARGL | ≤ 0.2 |
| PLSR | ≤ 0.2 |
| HGAR | ≤ 0.2 |
| AHKH | ≤ 0.2 |
| WGIH | ≤ 0.2 |
| PTCV | ≤ 0.2 |
| HMSK | ≤ 0.2 |
| PDSF | ≤ 0.2 |
| DHRC | ≤ 0.2 |
| YFRD | ≤ 0.2 |
| NRKI | ≤ 0.2 |
| EELR | ≤ 0.2 |
| MQYT | ≤ 0.2 |
| ATIS | ≤ 0.2 |
| RLTM | 0.346 |
| NNKY | 0.238 |
| RHFG | 0.876 |

| Variant | one-hybrid fitness for binding parS DNA |
| --- | --- |
| GRTF | ≤ 0.2 |
| RVNS | 0.915 |
| QCLA | ≤ 0.2 |
| ISSG | ≤ 0.2 |
| ARMC | ≤ 0.2 |
| WGYF | ≤ 0.2 |
| GAQF | ≤ 0.2 |
| EMYG | ≤ 0.2 |
| SMNG | ≤ 0.2 |
| RQCR | ≤ 0.2 |
| WMKR | ≤ 0.2 |
| RCFR | ≤ 0.2 |
| DEIG | ≤ 0.2 |
| VKDC | ≤ 0.2 |
| REFT | ≤ 0.2 |
| TMMI | ≤ 0.2 |
| MRHV | ≤ 0.2 |
| GSTC | ≤ 0.2 |
| AVVN | ≤ 0.2 |
| LHQS | ≤ 0.2 |
| QAGK | ≤ 0.2 |
| HPQS | ≤ 0.2 |
| KMRY | ≤ 0.2 |
| ATLM | ≤ 0.2 |

| Variant | one-hybrid fitness for binding parS DNA |
| --- | --- |
| VDLM | ≤ 0.2 |
| ITYS | ≤ 0.2 |
| TKLT | ≤ 0.2 |
| SCQC | ≤ 0.2 |
| GQQG | ≤ 0.2 |
| HDLS | ≤ 0.2 |
| CNNC | ≤ 0.2 |
| HESR | ≤ 0.2 |
| QPAL | ≤ 0.2 |
| KAER | ≤ 0.2 |
| ALAS | ≤ 0.2 |
| QYKP | ≤ 0.2 |
| LRLT | ≤ 0.2 |
| IAQM | ≤ 0.2 |
| RKVC | 0.868 |
| HSSP | ≤ 0.2 |
| AKQD | ≤ 0.2 |
| NRAG | ≤ 0.2 |
| LKPP | ≤ 0.2 |
| RESD | ≤ 0.2 |
| HNTT | ≤ 0.2 |
| FDRT | ≤ 0.2 |
| HRQD | ≤ 0.2 |
| YPHG | ≤ 0.2 |

| Variant | one-hybrid fitness for binding parS DNA |
| --- | --- |
| AMPR | ≤ 0.2 |
| PRPE | ≤ 0.2 |
| QDNA | ≤ 0.2 |
| RACR | ≤ 0.2 |
| TSKR | ≤ 0.2 |
| FLAG | ≤ 0.2 |
| NPMK | ≤ 0.2 |
| WDCC | ≤ 0.2 |
| HFWS | ≤ 0.2 |
| GHDS | ≤ 0.2 |
| STQS | ≤ 0.2 |
| QPNS | ≤ 0.2 |
| NTRN | ≤ 0.2 |
| DTMI | ≤ 0.2 |
| RLMQ | ≤ 0.2 |
| ELQY | ≤ 0.2 |
| PCED | ≤ 0.2 |
| QPKK | ≤ 0.2 |
| AEAC | ≤ 0.2 |
| TDHC | ≤ 0.2 |
| KDPW | ≤ 0.2 |
| SSMF | ≤ 0.2 |
| SGIT | ≤ 0.2 |
| RDDV | ≤ 0.2 |

| Variant | one-hybrid fitness for binding parS DNA |
| --- | --- |
| RCIT | 0.78 |
| HDSY | ≤ 0.2 |
| LWAA | ≤ 0.2 |
| DCCR | ≤ 0.2 |
| EGPA | ≤ 0.2 |
| RQPR | ≤ 0.2 |
| ASSS | ≤ 0.2 |
| LMLY | ≤ 0.2 |
| LAML | ≤ 0.2 |
| NCTS | ≤ 0.2 |
| NGTR | ≤ 0.2 |
| DASN | ≤ 0.2 |
| SMAC | ≤ 0.2 |
| TTDG | ≤ 0.2 |
| DAVY | ≤ 0.2 |
| PPWS | ≤ 0.2 |
| FGIT | ≤ 0.2 |
| WFPC | ≤ 0.2 |
| RTRA | 0.794 |
| TKQC | ≤ 0.2 |
| GNKS | ≤ 0.2 |
| TTYL | ≤ 0.2 |
| PSRI | ≤ 0.2 |
| IRKG | ≤ 0.2 |

| Variant | one-hybrid fitness for binding parS DNA |
| --- | --- |
| RLEM | 0.301 |
| RKWN | 0.364 |
| TLGM | ≤ 0.2 |
| WSQL | ≤ 0.2 |
| PRVC | ≤ 0.2 |
| PTNM | ≤ 0.2 |
| RVGM | 0.306 |
| PVVR | ≤ 0.2 |
| SCPH | ≤ 0.2 |
| EMAL | ≤ 0.2 |
| PDYF | ≤ 0.2 |
| HTSG | ≤ 0.2 |
| TCDG | ≤ 0.2 |
| QSWH | ≤ 0.2 |
| TSSY | ≤ 0.2 |
| KDPR | ≤ 0.2 |
| RASW | 0.21 |
| RMNG | 0.999 |
| SNGC | ≤ 0.2 |
| PAYT | ≤ 0.2 |
| FGYW | ≤ 0.2 |
| VYNR | ≤ 0.2 |
| AYWR | ≤ 0.2 |
| RQAV | ≤ 0.2 |

| Variant | one-hybrid fitness for binding parS DNA |
| --- | --- |
| HPLI | ≤ 0.2 |
| NQHI | ≤ 0.2 |
| TYQR | ≤ 0.2 |
| VQNE | ≤ 0.2 |
| SGEK | ≤ 0.2 |
| ETRV | ≤ 0.2 |
| TLRR | ≤ 0.2 |
| NDVY | ≤ 0.2 |
| WASL | ≤ 0.2 |
| NHKP | ≤ 0.2 |
| AQQC | ≤ 0.2 |
| VTET | ≤ 0.2 |
| PFTG | ≤ 0.2 |
| QPAE | ≤ 0.2 |
| WPRR | ≤ 0.2 |
| FCRL | ≤ 0.2 |
| TCKY | ≤ 0.2 |
| LGKR | ≤ 0.2 |
